Assay results published in the RNAGym collection of RNA variant scans (doi:10.7554/elife.90254).
The source gives no read counts; variants with many changes may rest on few reads.

B1: OR4K15 (parent)
chain: GUUAACGGUCAUAGGCCAUGGAAACUAGGAGCACCAUUUCGCUGCCAGUGAAGAAAUGAACAAAGAAAAUCUGGGCCAGGCAGGCAUCAAAAGAAAUAGUCUUGCGCUCAACCAGAAAGUCUGUAAUCAUUUUAAGGGUA

Variants of: B1
Assay: self-cleavage, relative activity (ratio to wild type); higher = more cleavage; in vitro, sequencing; the parent is a self-cleaving ribozyme
Variant G44C A110C A116G has a self-cleavage of 0.18. C46U A64G A116C showed a self-cleavage of 0.13. In the case of C46U A54G A90G, the self-cleavage is reported as 1.5. C40U C101A A129G gave a self-cleavage of 0.1. With U39C U127C G137A the self-cleavage was 1.5. For U39C U43C A126U, the self-cleavage was 1.59. Work on U43G A68G U100C yielded a self-cleavage of 1.96. For U43C G53U A86G A114G, the self-cleavage was 0.35. For C40U A67G A68G A69G G80C U131C A134G, the self-cleavage was 0.03. U39G A90U A118G showed a self-cleavage of 0.85. C42U A78G A95G A129G gave a self-cleavage of 0.51. U43A U70C A114U gave a self-cleavage of 0.04. C45U A56C G138A showed a self-cleavage of 0.65. U43C U87C U108A showed a self-cleavage of 0.01. Variant A47C A54G G80A A94G has a self-cleavage of 0.18. Variant G44A A95G A114G has a self-cleavage of 0.42. Work on U43A U49G A66G yielded a self-cleavage of 1.25. U43A U108A U120C showed a self-cleavage of 0. G44A A54G A56U A64G A116G showed a self-cleavage of 0.31. For U39G A59G A89G, the self-cleavage was 1.52. With A47G A52G U70C A92U U132C the self-cleavage was 0.49. Work on U43A A52G A54G yielded a self-cleavage of 1.91. With U43C G44A A91G the self-cleavage was 1.24. In the case of U43A A68G A90U U132A, the self-cleavage is reported as 1.44. For C40U A66G A94G, the self-cleavage was 1.45. U43C A67G A94G U108C U133C U139A showed a self-cleavage of 0. In the case of G41A A68G A95U U97C U122C, the self-cleavage is reported as 0.69. For U43A A117U A135G, the self-cleavage was 1.09. Variant U43C A60G A68U C77U A125G U133A has a self-cleavage of 1.14. U43C G44A A94G U97A U127C gave a self-cleavage of 1.16. In the case of A47G A63G A86U U87C C107U A111G, the self-cleavage is reported as 0. Variant G44U A91G A95G A134U has a self-cleavage of 0.13. With U43A A78U A94G U102C the self-cleavage was 1.65. With U43A A90G C112U A114G the self-cleavage was 0.01. Work on U43A A92G U102C yielded a self-cleavage of 1.79. A47G A56G A94G A96G gave a self-cleavage of 1.35. C40U A47U A114U gave a self-cleavage of 0.01. A47G A51G A94G gave a self-cleavage of 0.47. U39C G74A A82G U122A gave a self-cleavage of 0.22. Variant U43A A55G U70C A86U has a self-cleavage of 1.16. In the case of U43G A52C A135G, the self-cleavage is reported as 1.92. Variant U39C U122C A135G has a self-cleavage of 1.84. Variant U43C A51G A59G A118G has a self-cleavage of 1.05. With U43A U97C U133C the self-cleavage was 2.58. G44A A52U A62U A116G U131C showed a self-cleavage of 1.16. In the case of U43C G73A A116U, the self-cleavage is reported as 0.02. U39C A117G A118G gave a self-cleavage of 2.31. U43C G65U A78G gave a self-cleavage of 0.31. U39C U127C A140U gave a self-cleavage of 0.92. Variant C40G A63G A94C U120C has a self-cleavage of 1.32. U43C G73A U122C showed a self-cleavage of 0.06. U43C A60G U102C A111G A116G U131C gave a self-cleavage of 0. U43C A64G U120A showed a self-cleavage of 2.12. In the case of A47C G48U A95C, the self-cleavage is reported as 0.46. C46U A60U A111U showed a self-cleavage of 0.13. Variant U43A A125U U131C A140G has a self-cleavage of 1.51. With U43C A60U A78U the self-cleavage was 0.26. For C46G A56G A66G, the self-cleavage was 0.4. With U39G A59G A69G the self-cleavage was 1.23. For U43A A56G U72C A134G, the self-cleavage was 0.1. Variant G44C U49C A78G has a self-cleavage of 0.17. With A47C U103A A126G U130C the self-cleavage was 0.04. With U43G A52G A86G U100A the self-cleavage was 0.71. Work on A47C A59G U131C yielded a self-cleavage of 1.35. Work on G44U A56G A63G U120C yielded a self-cleavage of 0.43. U43G U49A A64G A67U showed a self-cleavage of 1.93. In the case of U39G A56G U57G A60G, the self-cleavage is reported as 0.76. For U39C C46U A59G A98G A111G, the self-cleavage was 0.01. With C45U A56G U124C the self-cleavage was 1.44. Variant C46U A98G A114G has a self-cleavage of 0.11. With U43A A62U U87A the self-cleavage was 2. In the case of C46G U102C A118U, the self-cleavage is reported as 0.98. For U43A U49A A60G U72A G123U, the self-cleavage was 0.39. For G41U A59G U87C U103A, the self-cleavage was 0.35. With U43C A51G A59G A69G U139A the self-cleavage was 0.63. U43C A66G U87C U120C showed a self-cleavage of 1.97. With U43C A59U C77A the self-cleavage was 0.61. For U43C U57C A64G A94U, the self-cleavage was 2.48. Work on G44A A67G A69G G93A yielded a self-cleavage of 0.66. In the case of A47G A52G A91G, the self-cleavage is reported as 0.47. With A47G A52G A67G A86G the self-cleavage was 0.93. Work on G41C A68G U131A yielded a self-cleavage of 1.36. U43C A60G A95U gave a self-cleavage of 0.46.
